Measurements as given in PubChem BioAssay AID2675 (National Center for Advancing Translational Sciences (NCATS), 2010).
Where “and” joins values, the source holds several entries; their conditions need not be identical. Equal values may be shown once. Hit rate of the full screen: of about 280,000 compounds, about 100 (0.036%) were called active. Inconclusive means that the source gave no clear call. Such entries were picked first, then a sample of the others. Calls follow the shape of the dose curve; as a rule, active = well fitted inhibition curve with a large enough effect in the signal ratio, with a control signal flat (not every such curve was filed as active); inconclusive = small, poorly fitted or top-dose-only effect, or effect the other way, or a change in a side signal; inactive = no such curve, though single readings can be large or run the other way; the % refers to the signal ratio. Potencies beside an inconclusive call are fits to weak or partial responses and may not hold up. “Side channel” marks fits to a control or component signal instead of the main read-out.

molecular target: Muscleblind-like protein 1 (Homo sapiens) (UniProt Q9NR56); assay: qHTS Assay for Inhibitors of MBNL1-poly(CUG) RNA binding; conditions: TR-FRET MBNL1-His/biotin-(CUG)12 binding, 665/545 ratio; activity change, negative = inhibition: at 57.5 µM (top of the series)
Procedure, shortened: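 TR-FRET readout: Ex 340 nm, 665/545 nm emission ratio, normalized to buffer-only (basal) and MBNL1-(CUG)12 controls. Complex of MBNL1-His with Biotin-(CUG)12, compounds 92 nM–58 uM, incubated 60 min at room temperature.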
% is scaled to controls: 0 for no effect and ±100 for the full control effect; potency is read from the fitted curve at half-maximal effect; tags tell the direction and shape of the fitted curve or compound fluorescence and quenching.

Sequence of UniProt Q9NR56 (Q9NR56 whole entry, looked up): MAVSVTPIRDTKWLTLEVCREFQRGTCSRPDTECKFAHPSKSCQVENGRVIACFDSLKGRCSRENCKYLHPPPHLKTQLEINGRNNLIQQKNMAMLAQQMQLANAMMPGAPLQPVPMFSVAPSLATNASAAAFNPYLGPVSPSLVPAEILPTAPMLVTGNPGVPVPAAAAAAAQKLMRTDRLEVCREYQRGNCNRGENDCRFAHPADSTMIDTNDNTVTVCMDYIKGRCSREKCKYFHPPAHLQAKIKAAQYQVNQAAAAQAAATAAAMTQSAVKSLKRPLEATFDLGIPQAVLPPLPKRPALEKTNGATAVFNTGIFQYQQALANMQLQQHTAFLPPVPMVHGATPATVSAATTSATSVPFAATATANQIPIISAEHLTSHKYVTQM

Structure (SMILES)	Potency	activity change, negative = inhibition
O=C(CSc1nc(-c2ccco2)cc(C(F)(F)F)n1)NCCN1CCOCC1	inconclusive: 31.6 µM [quencher, side channel, single point]	–
CCN(CC)C(=O)CSc1ncnc2sc(-c3ccccc3)cc12	inconclusive: 28.2 µM [quencher, single point]	–
Cc1cccc(NC(=O)CCN2CCN(C/C=C/c3ccccc3)CC2)c1	–	inactive: -4.29%
COc1ccc(-n2nc(C(=O)NCC(=O)NCCc3ccc(OC)c(OC)c3)c3ccccc3c2=O)cc1	inconclusive: 15.8 µM [quencher, side channel, partial curve]	–
CC(=O)[C@]1(O)Cc2c(O)c3c(c(O)c2[C@@H](O[C@H]2C[C@H](N)[C@H](O)[C@H](C)O2)C1)C(=O)c1ccccc1C3=O	inconclusive: 7.94 µM [quencher, side channel, partial curve]	–
O=c1cnc2ccccc2n1Cc1ccc(Br)cc1	inconclusive: 17.8 µM [quencher, side channel, partial curve]	–
Cc1ccc(N2CCN(C(=S)c3ccc(-c4cccc([N+](=O)[O-])c4)o3)CC2)cc1	inconclusive: 25.1 µM [quencher, side channel, single point]	–
COc1ccccc1N1CCN(C2CCN(S(=O)(=O)c3ccc(NC(C)=O)cc3)CC2)CC1	inconclusive: 1 µM [inhibitor, full curve]	–
Cc1cccc(-n2c(O)c(C=NCc3ccccn3)c3ccccc3c2=O)c1	inconclusive: 2.82 µM [quencher, side channel, full curve]	–
CCCCN1C=CC(=C2N=c3cccc([N+](=O)[O-])c3=N2)C=C1	inconclusive: 3.98 µM [quencher, side channel, partial curve]	–
CC(C)(C)c1ccc(C(=O)C2CCCN(C(=O)CCn3cncn3)C2)cc1 (stereo unspecified)	inconclusive: 1.78 µM [quencher, side channel, full curve]	–
O=[N+]([O-])c1cccc(N/N=C/c2cccc(O)c2O)c1	inconclusive: 35.5 µM [quencher, side channel, single point]	–
CCc1cc2c(-c3ccccc3)cc(=O)oc2cc1OCC(C)=O	–	inactive: 6.38%
C[n+]1c2n(c3ccccc31)N=C(c1ccccc1)CS2	inconclusive: 20 µM [quencher, side channel, single point] and inconclusive: 28.2 µM [quencher, side channel, partial curve]	–
C=CCc1cccc(CNc2nc3ccccc3n2C(C)C)c1O	–	inactive: -8.42%
CC1=N/C(=C\c2ccc([N+](=O)[O-])cc2)C(=O)N1c1ccc(F)cc1F	inconclusive: 15.8 µM [quencher, side channel, partial curve]	–
O=C(O)CCN1C(=O)/C(=C\c2ccncc2)SC1=S	–	inactive: 9.68%
Cc1ccc(C(=O)NCC(=O)OCC(=O)Nc2ncc(C(F)(F)F)cc2Cl)cc1	inconclusive: 0.1 µM [fluorescent, side channel, partial curve, poor fit]	–
NNc1ccc2c(C(F)(F)F)cc(C(F)(F)F)nc2n1	inconclusive: 31.6 µM [quencher, side channel, single point]	–
O=C(NN=c1c(=O)c2ccccc2c1=O)c1ccccc1	inconclusive: 25.1 µM [quencher, side channel, partial curve]	–
Cc1ccc(NC(=O)c2cc(=O)c3ccccc3o2)cc1S(=O)(=O)N1CCOCC1	inconclusive: 12.6 µM [quencher, side channel, partial curve]	–

Structure (SMILES)	Potency	activity change, negative = inhibition
COC(=O)c1[nH]c2cc(OC)ccc2c1NC(=O)c1c(F)cccc1F	–	inactive: 12.5%
O=C(N/N=C/c1ccc([N+](=O)[O-])s1)c1ccccc1	inconclusive: 2.51 µM [quencher, side channel, full curve]	–
O=S(=O)(Nc1ccccc1)c1cccc2nonc12	inconclusive: 14.1 µM [quencher, side channel, partial curve]	–
CCCN=C(C)C1=C(O)c2ccccc2C1=O	inconclusive: 22.4 µM [quencher, side channel, single point]	–
O=C(c1ccco1)N1CCN(S(=O)(=O)c2ccc(Cl)cc2)CC1	–	inactive: 3.86%
Cc1ccc(OCCN2CCN(C(=O)CCC(=O)Nc3nnc(C(C)C)s3)CC2)cc1	–	inactive: -14.8%
COc1ccc(Cc2nnc(NCCO)[nH]c2=O)cc1	–	inactive: -0.557%
CCC(=O)c1ccc(OCC(=O)OCC(=O)c2cc(C)n(C)c2C)cc1	–	inactive: -4.88%
Cc1ccc(OC(C)C(=O)O)cc1C (stereo unspecified)	inconclusive: 0.794 µM [quencher, side channel, full curve, poor fit]	–
CN(CCc1ccccn1)C(=O)c1nn2c(C(F)(F)F)cc(-c3ccco3)nc2c1Cl	inconclusive: 7.94 µM [quencher, side channel, full curve]	–
CCOC(=O)c1c(NC(=O)c2cc3n(n2)C(C(F)(F)F)CC(c2cccs2)N3)sc(C)c1C (stereo unspecified)	–	inactive: 2.4%
CSc1nnc(C)c(=O)n1COC(=O)c1ccc([N+](=O)[O-])cc1	inconclusive: 15.8 µM [quencher, partial curve]	–
O=C(Nc1ccc(C(=O)O)cc1)/C(=C\C=C\c1ccccc1)NC(=O)c1ccccc1Br	inconclusive: 39.8 µM [quencher, side channel, partial curve, poor fit]	–
CC1CCc2nc3ccc(S(=O)(=O)N4CCC(C(=O)O)CC4)cc3c(C(=O)O)c2C1 (stereo unspecified)	inconclusive: 12.6 µM [quencher, partial curve]	–
CCC(C)C1C(C#N)=C(N)OC2=C1C(=O)CC(C)(C)C2 (stereo unspecified)	inconclusive: 0.891 µM [fluorescent, side channel, full curve]	–
O=C(CSc1ccccn1)N/N=C/C=C/c1ccccc1	–	inconclusive: 15.1% [phenotype inactive]
O=C(Nc1ccc(N2CCOCC2)cc1N1CCOCC1)c1ccc([N+](=O)[O-])cc1Cl	inconclusive: 3.16 µM [quencher, side channel, full curve]	–
O=C(c1cn(-c2ccccc2)nc1-c1cccs1)N1CCN(c2ccccc2)CC1	–	inactive: -5.7%
Cn1cc(Br)c(NC(=O)/C=C/C(=O)O)n1	–	inactive: 2.53%
CCC(=O)Oc1ccc2c(c1)O/C(=C\c1ccco1)C2=O	inconclusive: 10 µM [quencher, side channel, partial curve]	–
COc1cc(-c2nc(CN3CCCN(C(=O)c4ccco4)CC3)c(C)o2)ccc1F	inconclusive: 25.1 µM [inhibitor, single point]	–

Structure (SMILES)	Potency	activity change, negative = inhibition
S=C(Nc1ccc(Nc2ccccc2)cc1)NC1CCCCCC1	–	inactive: -6.06%
OCCCCCN=c1cc(-c2ccccc2)oc2ccc(Cl)cc12	inconclusive: 25.1 µM [quencher, single point]	–
O=C1C=C(NCc2ccccc2)c2ccccc2C1=O	inconclusive: 10 µM [quencher, side channel, partial curve]	–
CN(C)NC(=S)Nc1ccc2nc(-c3ccccn3)c(-c3ccccn3)nc2c1	inconclusive: 15.8 µM [quencher, side channel, partial curve]	–
O=C(NCCCN1CCOCC1)c1cc2cc(Br)ccc2oc1=O	inconclusive: 8.91 µM [quencher, side channel, partial curve, poor fit]	–
COCCN1C(=O)N[C@@H](CCc2ccccc2)C(C(C)=O)=C1C	inconclusive: 126 µM [inhibitor, partial curve, poor fit]	–
Cc1ccc(-c2nnc(Nc3ccc(CC(N)=O)cc3)c3ccccc23)cc1	inconclusive: 22.4 µM [quencher, side channel, single point]	–
CCCS(=O)(=O)c1c(S(=O)(=O)CCC)c2cc(-c3ccncc3)ccn2c1C(=O)OC	inconclusive: 10 µM [quencher, side channel, partial curve]	–
O=C(CCCNS(=O)(=O)c1cccc2nsnc12)NCc1ccc(F)cc1	inconclusive: 20 µM [quencher, side channel, partial curve]	–
Cc1cc(/C=C(\C#N)C(N)=O)c(C)n1-c1ccc(N2CCOCC2)c([N+](=O)[O-])c1	inconclusive: 12.6 µM [quencher, partial curve]	–
COc1ccc2oc(=O)c(/C(C)=N/Nc3ccccc3)cc2c1	inconclusive: 15.8 µM [quencher, partial curve]	–
CC(=O)c1ccc(NC(=O)c2ccc3nc(-c4ccco4)c(-c4ccco4)nc3c2)cc1	inconclusive: 15.8 µM [quencher, side channel, partial curve]	–
COc1cc(C(=O)N2CCN(c3cccc(C)c3C)CC2)cc(OC)c1OC	–	inactive: 6.54%
O=[N+]([O-])c1ccc(NCCNCCOc2nonc2-c2ccccc2)c([N+](=O)[O-])c1	inconclusive: 39.8 µM [quencher, single point]	–
COc1ccc(-c2nc3c(c(SCC(=O)N4CCOCC4)n2)Cc2c(CO)cnc(C)c2O3)cc1	–	inactive: 3.65%
CC(=O)Nc1cc([N+](=O)[O-])ccc1N1CCOCC1	inconclusive: 14.1 µM [quencher, side channel, partial curve]	–
Cc1cnc([N+](=O)[O-])n1CCOC(=O)NC(=O)c1ccc(F)cc1	inconclusive: 20 µM [quencher, side channel, partial curve]	–
CCc1ccc(NC(=O)CSc2nnc(-c3ccccn3)n2C)cc1	–	inactive: 3.08%
CC(=O)c1ccc(NC(=S)Nc2cccc3ccccc23)cc1	inconclusive: 39.8 µM [quencher, single point]	–
